Each structure is given as a SMILES string. The whole screen tested about 310,000 compounds, of which about 14,000 (4.5%) showed an effect of 50% or more. Effects have a minus sign here. The list shows a part of the results.

From paper PMC4336329 (PLoS ONE, 2015) come the findings set out here.
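Note: peak tail current of the secondary pulse compared with the same well before compound.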

human ether-à-go-go-related gene (hERG) potassium channel, sequence (Q12809 whole entry, looked up): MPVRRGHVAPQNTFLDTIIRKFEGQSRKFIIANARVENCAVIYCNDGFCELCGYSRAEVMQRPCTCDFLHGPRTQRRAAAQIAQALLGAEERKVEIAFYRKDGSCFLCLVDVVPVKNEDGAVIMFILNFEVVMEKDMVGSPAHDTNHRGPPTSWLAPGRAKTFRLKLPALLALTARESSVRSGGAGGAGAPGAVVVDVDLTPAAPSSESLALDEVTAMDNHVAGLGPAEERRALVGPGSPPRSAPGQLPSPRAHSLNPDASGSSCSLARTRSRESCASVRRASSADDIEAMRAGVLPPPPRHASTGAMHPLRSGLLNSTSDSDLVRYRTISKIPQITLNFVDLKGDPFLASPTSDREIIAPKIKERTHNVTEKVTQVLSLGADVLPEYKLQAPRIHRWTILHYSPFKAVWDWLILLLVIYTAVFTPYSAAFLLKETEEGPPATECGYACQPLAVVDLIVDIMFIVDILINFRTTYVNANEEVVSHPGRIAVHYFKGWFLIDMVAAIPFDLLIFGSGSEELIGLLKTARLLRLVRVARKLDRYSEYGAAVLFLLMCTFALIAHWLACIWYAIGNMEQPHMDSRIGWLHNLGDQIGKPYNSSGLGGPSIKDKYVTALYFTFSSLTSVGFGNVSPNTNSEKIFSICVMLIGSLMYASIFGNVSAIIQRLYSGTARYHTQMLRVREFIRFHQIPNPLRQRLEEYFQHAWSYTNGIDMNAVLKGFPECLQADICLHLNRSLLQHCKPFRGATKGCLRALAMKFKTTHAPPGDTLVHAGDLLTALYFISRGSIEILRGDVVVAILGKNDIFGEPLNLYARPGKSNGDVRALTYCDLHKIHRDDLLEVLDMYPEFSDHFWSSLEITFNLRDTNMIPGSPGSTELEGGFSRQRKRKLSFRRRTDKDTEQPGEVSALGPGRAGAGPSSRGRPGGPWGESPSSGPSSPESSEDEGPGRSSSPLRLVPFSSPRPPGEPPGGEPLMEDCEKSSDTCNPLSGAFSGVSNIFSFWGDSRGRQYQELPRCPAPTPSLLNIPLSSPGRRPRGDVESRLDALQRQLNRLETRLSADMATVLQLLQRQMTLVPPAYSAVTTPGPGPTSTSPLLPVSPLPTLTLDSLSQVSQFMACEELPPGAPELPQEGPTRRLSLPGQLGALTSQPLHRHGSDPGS

This assay addresses human ether-à-go-go-related gene (hERG) potassium channel (human, UniProt Q12809). The assay is described as follows: primary screen, population patch clamp on CHO cells stably expressing hERG.
With `CCN(CC)S(=O)(=O)c1cc(NC(=O)CNc2cccc(S(=O)(=O)N3CCOCC3)c2)ccc1C`, the “hERG current change (%, negative = inhibition) at 10uM” value stood at 7.17%.
For `Cc1nc2cc(Nc3nnc(-c4ccccc4)c4ccccc34)ccc2n1C` the value was -67.2%; for `CCOC(=O)c1sc(NC(=O)c2ccc(Br)o2)cc1C`, -6.02%.
The figure for `CCOc1ccc(NC(=O)CN2CCc3cc4c(cc3C2)OCCCO4)cc1OCC` is -4.56%; for `Cc1onc(C(=O)NC2CCCCC2)c1[N+](=O)[O-]` it is -23.2%; for `COc1ccccc1N=Nc1c(C)[nH][nH]c1=O` it is -3.66%.
For `S=C(NCc1cccnc1)Nc1ccc(Cl)cc1` the value was -10.8%; for `Cn1cc(SCC(=O)NC2CCCC2)c2ccccc21`, 1.6%.
`CCSc1ccccc1C(=O)N1CCN(c2ccc([N+](=O)[O-])cc2)CC1`: the “hERG current change (%, negative = inhibition) at 10uM” value was -79.4%.
Regarding `O=C(c1ccccc1-n1cccn1)N1CCc2c([nH]c3ccccc23)C1c1ccccn1` (stereo not drawn), the “hERG current change (%, negative = inhibition) at 10uM” value is on record as -5.95%.
For `O=C(COc1ccc(Br)cc1F)NC1CCN(Cc2ccccc2)CC1` the value was -74%; for `O=c1[nH]c2ccccc2nc1/C=C/c1ccc(Cl)cc1`, 18.6%.
The figure for `O=C(c1cccs1)n1nc(-c2ccc(Cl)cc2)nc1NCc1ccco1` is 0.741%; for `Cc1ccc(-c2c(C(=O)Nc3ccccc3C)c(C)[nH]c(=S)c2C#N)o1` it is 16.1%; for `CCCCNC(=O)Cc1c(OC)ccc2cc(Br)ccc12` it is 13.4%.
For `Cc1ccc(-c2nn3c(C)nnc3s2)cc1NCc1c(F)cccc1Cl` the value was 2.39%; for `COCC1CCN(C(=O)C2CCC(=O)N(CCc3ccc(Cl)cc3)C2)CC1` (stereo not drawn), -19.6%.
As for `O=C(O)CCNS(=O)(=O)c1ccccc1Br`, the “hERG current change (%, negative = inhibition) at 10uM” value amounted to 8.88%.
For `COc1ccc(NC(=O)Cc2ccsc2)cc1S(=O)(=O)N1CCOCC1` the value was -1.04%; for `O=C(COC(=O)c1cccc([N+](=O)[O-])c1)NCc1ccc2c(c1)OCO2`, 9.38%.
For `COC(=O)CCC(=O)Nc1cc(OC)c(OC)cc1Cc1nccc2cc(OC)c(OC)cc12` the value was 12%; for `O=C(Cn1cnc2ccccc2c1=O)c1cccs1`, 11.7%; for `O=C(CSc1nc2ccccc2c(=O)n1-c1ccc(F)cc1F)Nc1ccc2c(c1)CCC2`, -5.3%.
For `CN(C1CCCCC1)S(=O)(=O)c1ccc(NC(=O)c2ccco2)cc1` the value was -42.9%; for `CCN(Cc1ccccc1)C(=O)c1cc(-c2ccc(OC)c(OC)c2)nc2ccccc12`, -7.33%.
`O=C1OC(c2ccccc2)/C(=C(/O)c2ccccc2)C1=O` (stereo not drawn): the “hERG current change (%, negative = inhibition) at 10uM” value is recorded as 13.1%.
For `Cc1cc(C)cc(N(CCC#N)C(=O)CSc2nc3nc(C)cc(C)n3n2)c1` the value was -15.9%; for `C=CCn1c(C)cc(-c2csc(NCC)n2)c1C`, -0.487%; for `O=C(CSCc1ccccn1)Nc1ccccc1`, 1.85%.
For `O=C(NC12CC3CC(CC(C3)C1)C2)c1ccc(N2CCNCC2)c([N+](=O)[O-])c1` the value was -25.2%; for `CCNc1nc(NCC)nc(Oc2ccc(OCC)nn2)n1`, 13.9%; for `O=C(COc1ccc(F)cc1Cl)N(Cc1nnc(-c2ccccc2Cl)o1)C1CC1`, -34.7%.
As to `COc1ccc(-c2nc(C)c(C(C)=O)n2O)cc1`, the “hERG current change (%, negative = inhibition) at 10uM” value turned out to be 19%.
The figure for `O=c1c2c3n(c(=S)nc2[nH]n1-c1ccccc1)CCCCC3` is 17.2%.
For `Cc1cc2c(s1)Nc1ccccc1N=C2N1CCN(C)CC1` the value was -13.2%; for `Cn1c(=O)c(=O)n(C)c2cc(S(=O)(=O)NCc3ccc(Cl)cc3)ccc21`, -26.3%.
For `Cc1ccc(CSc2ncnc3c2cnn3-c2ccc(C)cc2)cc1` the value was 30.7%; for `O=C(CCc1ccccc1)N1CCN(S(=O)(=O)c2cccs2)CC1`, -21.9%; for `Cc1ccc(SCc2cc(=O)[nH]c(N3CCN(Cc4ccc5c(c4)OCO5)CC3)n2)cc1`, 9.08%.
For `N#C/C(=C\c1ccc(O)cc1)C(=O)N1CCCC1`, the “hERG current change (%, negative = inhibition) at 10uM” value is given as 19.1%.
The figure for `O=C(CCc1nc2ccccc2c(=O)[nH]1)OCC(=O)N1CCc2ccccc21` is 17.1%.
The figure for `COc1cc(-c2noc(CCCC(=O)NCc3ccco3)n2)cc(OC)c1OC` is -12.1%.
The figure for `CC(=O)Nc1ccc(S(=O)(=O)NCC(=O)OC(C)c2ccccc2Cl)cc1` (stereo not drawn) is -4.38%.
With `COc1cccc(C2=NOC(C(=O)Nc3cccnc3)C2)c1` (stereo not drawn), the “hERG current change (%, negative = inhibition) at 10uM” value is given as 10.3%.
For `CC(C)C(NC(=O)c1ccccc1)C(=O)NCC(c1ccccc1)N(C)C` (stereo not drawn) the value was -0.00722%.
